From US20230303648A1 (OSE IMMUNOTHERAPEUTICS, published 2023)
One block for each binder: values may come before it.

How the values were obtained:
[1] = target: T1, CD127 (Sinobiological, 10975-H03H-50) (UniProt P16871 21-239); assay: Biacore: CD127 immobilised on sensor chip, fusion at escalating doses
T1 construct: bought; immobilised on the CM5 chip in the Biacore assays; also called CD127 receptor
T1 sequence (looked up): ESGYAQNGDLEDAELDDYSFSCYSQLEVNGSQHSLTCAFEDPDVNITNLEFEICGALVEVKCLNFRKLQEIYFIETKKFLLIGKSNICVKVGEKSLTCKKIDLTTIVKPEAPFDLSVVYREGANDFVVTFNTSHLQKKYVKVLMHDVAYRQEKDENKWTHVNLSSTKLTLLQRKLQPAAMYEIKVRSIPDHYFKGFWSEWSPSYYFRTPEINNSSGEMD

[2] = target: T2, CD127 recombinant protein (Histidine tagged, Sino ref 10975-H08H) (UniProt P16871 21-239); assay: sandwich ELISA: PD-1 immobilised, fusion preincubated with His-tagged CD127, anti-His detection
T2 construct: bought; used in the CD127 sandwich ELISA; also called CD127 receptor; IL-7Ralpha; not shown: histidine tag
T2 sequence (looked up): T1 sequence (looked up)

[3] = target: T3, IL-7 receptor (IL-7R: CD127/CD132) on cells (human, UniProt P16871 21-459; P31785 23-369); assay: cell-based or functional assay
T3 sequence (looked up) 1: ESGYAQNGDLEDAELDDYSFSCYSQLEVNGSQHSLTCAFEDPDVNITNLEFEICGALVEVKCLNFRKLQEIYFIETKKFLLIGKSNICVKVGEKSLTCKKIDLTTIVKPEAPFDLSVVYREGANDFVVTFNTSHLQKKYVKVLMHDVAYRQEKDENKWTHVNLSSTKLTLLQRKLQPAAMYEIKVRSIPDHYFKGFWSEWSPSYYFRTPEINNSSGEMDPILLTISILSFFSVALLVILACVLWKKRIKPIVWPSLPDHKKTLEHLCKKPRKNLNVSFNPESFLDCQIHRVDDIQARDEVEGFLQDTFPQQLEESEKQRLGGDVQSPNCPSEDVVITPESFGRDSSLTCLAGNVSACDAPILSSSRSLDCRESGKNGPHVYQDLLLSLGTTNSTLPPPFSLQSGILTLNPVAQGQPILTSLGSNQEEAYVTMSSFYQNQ
T3 sequence (looked up) 2: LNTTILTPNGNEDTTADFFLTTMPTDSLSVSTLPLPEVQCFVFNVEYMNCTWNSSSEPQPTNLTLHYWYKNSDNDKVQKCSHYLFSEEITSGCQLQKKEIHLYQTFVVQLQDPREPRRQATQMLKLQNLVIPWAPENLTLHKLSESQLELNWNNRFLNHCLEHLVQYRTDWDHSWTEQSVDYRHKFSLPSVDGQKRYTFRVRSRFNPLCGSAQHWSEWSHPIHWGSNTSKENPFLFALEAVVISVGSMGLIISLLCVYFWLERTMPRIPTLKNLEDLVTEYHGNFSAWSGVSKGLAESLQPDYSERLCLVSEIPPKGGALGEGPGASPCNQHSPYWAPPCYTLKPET

[4] = target: T1, CD127 (Sinobiological, 10975-H03H-50); assay: Biacore: CD127 immobilised on CM5 chip, fusion as analyte (0.35-30 nM), two-state reaction model
[5] = target: T4, CD132 receptor (Sinobiological 10555-H08B) (UniProt P31785 23-254); assay: Biacore, steady-state model: CD127 immobilised, IL-7 construct injected at 30 nM, then CD132 at 31.25-500 nM (CD132 on the CD127 + fusion complex)
T4 construct: bought; analyte in the Biacore CD132 assay; also called common gamma chain
T4 sequence (looked up): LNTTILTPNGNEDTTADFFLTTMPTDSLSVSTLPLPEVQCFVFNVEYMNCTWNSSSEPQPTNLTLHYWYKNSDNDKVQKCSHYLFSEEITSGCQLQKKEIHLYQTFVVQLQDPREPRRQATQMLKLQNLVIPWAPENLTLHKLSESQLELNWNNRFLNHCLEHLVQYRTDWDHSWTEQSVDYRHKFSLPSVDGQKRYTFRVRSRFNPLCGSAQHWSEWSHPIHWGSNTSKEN

[6] = target: T5, recombinant human PD-1 (rPD1; Sino Biologicals, reference 10377-H08H) (human, UniProt Q15116 fragment); assay: ELISA: PD-1 immobilised, anti-human Fc peroxidase detection
T5 construct: bought; also called hPD1; PD-1 receptor

[7] = target: T6, human CD127 on PD-1-negative cells (Jurkat, CHO or U937 cells expressing CD127 only) (human, UniProt P16871 21-459); assay: flow cytometry, 1:1 co-culture of U937 PD-1+CD127+ and U937 PD-1-CD127+ cells, anti-human IgG PE; EC50 of binding, n=2
T6 construct: whole, on cells; U937 cells also carry endogenous CD132; also called PD-1-CD127+ cells; PD-1(-)CD127(+) cells
T6 sequence (looked up): T3 sequence (looked up) 1

[8] = target: T2, CD127 recombinant protein (Histidine …); assay: sandwich ELISA, PD-1 immobilised, molecule preincubated with His-tagged CD127, anti-His-biotin + streptavidin-peroxidase, 450 nm

UniProt Q15116, sequence (Q15116 25-167 limits assumed): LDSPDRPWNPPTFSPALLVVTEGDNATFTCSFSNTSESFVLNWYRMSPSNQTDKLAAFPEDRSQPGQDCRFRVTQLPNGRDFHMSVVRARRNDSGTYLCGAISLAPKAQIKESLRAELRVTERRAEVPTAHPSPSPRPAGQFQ

Kd [1]: 0.87 nM
EC50 [2]: 0.0184 µg/mL
pSTAT5 EC50 in CD3 T cells of human PBMCs [3]: 76 ng/mL
pSTAT5 EC50 in CD3 T cells of human PBMCs (second experiment, other donor) [3]: 0.52 ng/mL
Kd [4]: 0.0414 nM
Kd2 [4]: 0.000122 s⁻¹
kon [4]: 5.76e+06 M⁻¹ s⁻¹
Kd [5]: 118 nM
B1: anti PD-1 IL-7 WT bifunctional molecule, IgG4m isotype, (GGGGS)3 linker (other)
heavy: QIQLVQSGSELKKPGASVKVSCKASGYTFTHYAMNWVRQAPGQGLEWMGWINTNTGEPTYAQGFTGRFVFSLDTSVSTAYLQISSLKAEDTAVYYCAREREPGMDNWGQGTLVTVSSASTKGPSVFPLAPCSRSTSESTAALGCLVKDYFPEPVTVSWNSGALTSGVHTFPAVLQSSGLYSLSSVVTVPSSSLGTKTYTCNVDHKPSNTKVDKRV[… human IgG4 Fc with S228P L445P (EU numbers) …]GGGGSGGGGSGGGGSDCDIEGKDGKQYESVLMVSIDQLLDSMKEIGSNCLNNEFNFFKRHICDANKEGMFLFRAARKLRQFLKMNSTGDFDLHLLKVSEGTTILLNCTGQVKGRKPAALGEAQPTKSLEENKSLKEQKKLNDLCFLKRLLQEIKTCWNKILMGTKEH
light: DVVMTQSPLSLPVTLGQPASISCRSSQSLVHANTNTYLEWYQQRPGQSPRLLIYKVSNRFSGVPDRFSGSGSGTDFTLKISRVEAEDVGVYYCFQGTHVPNTFGQGTKLEIKRTVAAPSVFIFPPSDEQLKSGTASVVCLLNNFYPREAKVQWKVDNALQSGNSQESVTEQDSKDSTYSLSSTLTLSKADYEKHKVYACEVTHQGLSSPVTKSFNRGEC
notes: antibody-IL-7 fusion: IL-7 on the C-terminus of each heavy chain; IgG4 S228P; also called IgG4 G4S3 IL7 WT; IgG4 Fc G4S3 IL-7 WT

EC50 [6]: 0.086 nM
binding result [7]: binds
B2: Construction 4: anti PD-1*1 IL-7 W142H*2 (other)
heavy: QIQLVQSGSELKKPGASVKVSCKASGYTFTHYAMNWVRQAPGQGLEWMGWINTNTGEPTYAQGFTGRFVFSLDTSVSTAYLQISSLKAEDTAVYYCAREREPGMDNWGQGTLVTVSSASTKGPSVFPLAPSSKSTSGGTAALGCLVKDYFPEPVTVSWNSGALTSGVHTFPAVLQSSGLYSLSSVVTVPSSSLGTQTYICNVNHKPSNTKVDKKV[… human IgG1 Fc with changes …]GGGGSGGGGSGGGGSDCDIEGKDGKQYESVLMVSIDQLLDSMKEIGSNCLNNEFNFFKRHICDANKEGMFLFRAARKLRQFLKMNSTGDFDLHLLKVSEGTTILLNCTGQVKGRKPAALGEAQPTKSLEENKSLKEQKKLNDLCFLKRLLQEIKTCHNKILMGTKEH
chain: DKTHTCPPCPAPELLGGPSVFLFPPKPKDTLMISRTPEVTCVVVDVSHEDPEVKFNWYVDGVEVHNAKTKPREEQYASTYRVVSVLTVLHQDWLNGKEYKCKVSNKALPAPIEKTISKAKGQPREPQVYTLPPCRDELTKNQVSLWCLVKGFYPSDIAVEWESNGQPENNYKTTPPVLDSDGSFFLYSKLTVDKSRWQQGNVFSCSVMHEALHNHYTQKSLSLSPGKGGGGSGGGGSGGGGSDCDIEGKDGKQYESVLMVSIDQLLDSMKEIGSNCLNNEFNFFKRHICDANKEGMFLFRAARKLRQFLKMNSTGDFDLHLLKVSEGTTILLNCTGQVKGRKPAALGEAQPTKSLEENKSLKEQKKLNDLCFLKRLLQEIKTCHNKILMGTKEH
light: B1 light
notes: IgG1 N298A, knob-into-hole; also called anti PD-1*1 IL-W142H*2

EC50 (read off the curve) [8]: ~0.008 µg/mL
B3: anti PD-1 IL-7 WT bifunctional molecule, IgG1m isotype, (GGGGS)3 linker (other)
heavy: QIQLVQSGSELKKPGASVKVSCKASGYTFTHYAMNWVRQAPGQGLEWMGWINTNTGEPTYAQGFTGRFVFSLDTSVSTAYLQISSLKAEDTAVYYCAREREPGMDNWGQGTLVTVSS[… human IgG1 constant region with changes …]GGGGSGGGGSGGGGSDCDIEGKDGKQYESVLMVSIDQLLDSMKEIGSNCLNNEFNFFKRHICDANKEGMFLFRAARKLRQFLKMNSTGDFDLHLLKVSEGTTILLNCTGQVKGRKPAALGEAQPTKSLEENKSLKEQKKLNDLCFLKRLLQEIKTCWNKILMGTKEH
light: B1 light
notes: antibody-IL-7 fusion, IgG1 N298A (N297A)
